# Measured values published in PMC12040169 (PLOS Biology, 2025).
# The list shows a part of the results.
# Test system: T1, C. trachomatis L2/434/Bu expressing GFP (CTL2-GFP)
# T1 construct: L2/434/Bu GFP intracellular growth in HeLa cells
# Parameters: species or system HeLa; C. trachomatis total inclusion area by high-content imaging, normalised to DMSO
# Conditions: total inclusion area; 28.5 h, 10 µM; inhibitor
# In short: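 Host cell viability was gauged from Hoechst-stained nuclei counts, while chlamydial growth was taken from total inclusion area and inclusion number per well. Cells were fixed and imaged by high-content microscopy once bulk GFP and resorufin fluorescence had been measured.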
row,Compound,% of control remaining
1,c1ccc(OCCN2CCCN(c3nccc(OCC4COc5ccccc5O4)n3)CC2)cc1 (centres unmarked) [CBK083980],76.0681
2,Cc1ccc2nc(-c3ccc(NC(=O)CSc4nnc(C)s4)cc3)sc2c1 [CBK266185],164.85
3,O=S(=O)(CC(CN1CCCCC1)N1CCCCC1)c1ccc2ccccc2c1 (centres unmarked) [CBK267087],79.0712
4,COC(=O)c1cc(NC(=O)OC(C)(C)C)ccc1O [CBK016529],55.0513
5,Cc1cc(COC(=O)Nc2ccc(Cl)cc2)no1 [CBK086560],70.9517
6,CCOc1ccc(-c2ccnc(N3CCN(CC)CC3)n2)cc1C(=O)O [CBK307697],74.2557
7,N=C(N)NCc1ccc(Cl)cc1 [CBK002260],99.6404
8,Nc1ccc(Oc2ccc3nc4c5cc(I)ccc5c5ccc(I)cc5c4nc3c2)cc1 [CBK261978],71.9706
9,O=C1NC2CS(=O)(=O)CC2N1Cc1ccccc1 (centres unmarked) [CBK009306],77.0203
10,Nc1nnc(Sc2nccnc2N2CCCC2)s1 [CBK093804],100.415
11,Nc1ncnc2c1nc(SCc1ccccc1)n2Cc1ccccc1 [CBK288181],97.6015
12,NC(=O)[C@@H]1C[C@@H](O)[C@H](O)[C@H]2[C@@H]1N(c1ccc(Cl)cc1)C(=S)N2CC1CCCCC1 [CBK288933],103.282
13,CCN(Cc1ccccc1)C(=O)Nc1ccc2c(c1)OCCO2 [CBK155231],110.388
14,O=C(CN1C(=O)c2ccccc2S1(=O)=O)Nc1ccccc1C(=O)N1CCOCC1 [CBK266975],116.048
15,C[C@H](NC(=O)C1CCN(C(=O)OC(C)(C)C)CC1)C(=O)O [CBK286730],70.0218
16,COCC(=O)N1CCN(C(=O)c2cccs2)[C@@H](C(=O)OC)C1 [CBK289614],82.3606
17,COc1cc(CNc2cncc(-c3ccc(F)cc3F)n2)cc(OC)c1OC [CBK065826],79.2604
18,O=C(CCc1ccccc1)NNC(=O)C1C2C=CC(C2)C1C(=O)O (centres unmarked) [CBK267541],112.973
19,CCCc1ccc(S(=O)(=O)NCC(=O)OCC)cc1 [CBK034429],61.1116
20,O=S(=O)(Oc1ccc(-c2cnc3ccccc3n2)cc1)c1ccccc1 [CBK261104],106.496
21,CCOC(=O)c1c(NC(=O)CN2CCCCC2)sc2c1CCCC2O (centres unmarked) [CBK261644],98.1406
22,CC[C@H]1C[N@@]2CC[C@H]1C[C@@H]2CNC(=O)Nc1cccc(C#N)c1 [CBK288748],105.782
23,CCc1cc(CNC(=O)C2CN(Cc3ccc(Cl)cc3)C2)on1 [CBK281564],86.1014
24,Fc1ccc(CN2CCC3(C2)c2[nH]c4ccccc4c2CCN3Cc2ccc(F)cc2)cc1 (centres unmarked) [CBK059467],96.1531
25,Cc1cc(C[C@@H]2CCC[C@H]2NCc2ccncc2)on1 [CBK284934],91.3974
26,O=C1CC2(CCN(C(=O)c3ccccc3F)CC2)Oc2c(Cl)cc(Cl)cc21 [CBK156453],92.7831
27,C/C(C(=O)O)=C(/C)C(=O)N1CCC2(CC1)NCCc1c2[nH]c2ccc(C)cc12 [CBK047026],91.4726

row,Compound,% of control remaining
1,O=C(CN1CCC(NC(=O)c2cccs2)CC1)NCc1ccccc1F [CBK304901],79.1675
2,O=C(CSc1ccccc1)Nc1cccc(NC(=O)c2cccs2)c1 [CBK266788],98.4725
3,O=C(Nc1nccs1)c1c(O)n(Cc2ccccc2)c2ccccc2c1=O [CBK291173],112.134
4,Cc1ccc(-c2ccc(CCC(=O)O)n2NC(N)=S)cc1 [CBK265870],145.798
5,O=C(c1ccc2ncccc2c1)N1CCc2ccccc21 [CBK200403],113.768
6,Cc1cc(Br)cc(C)c1OCCNCCN(C)C [CBK267808G],69.2831
7,FC(F)(F)c1nc2ccccc2nc1SCCc1ccccc1 [CBK107204],100.309
8,CCC(CC)C(=O)N1CCC(CNc2cnc(-c3ccc(S(C)(=O)=O)cc3)cn2)CC1 [CBK172021],70.2048
9,O=C(C1CC1)N1CCCC(c2nc(-c3cccs3)no2)C1 (centres unmarked) [CBK281944],111.061
10,O=C1CC(NCc2ccc3c(c2)OCO3)C(=O)N1c1ccc(OC(F)(F)Cl)cc1 (centres unmarked) [CBK074357],86.1752
11,Cc1nnnn1-c1ccc(CC(=O)N2CCc3sccc3C2c2ccccc2)cc1 (centres unmarked) [CBK285567],82.235
12,COCCOCN1C(=O)CC2(C1=O)C(=O)N(CC(=O)O)c1ccc(F)cc12 (centres unmarked) [CBK076163],84.3552
13,COC(=O)c1cc(C(=O)Nc2ccc(OCCC(N)=O)cc2)c[nH]1 [CBK305486],24.1021
14,NS(=O)(=O)c1ccc(CCNC(=O)c2ccccc2Oc2ccccc2)cc1 [CBK264394],113.235
15,Cc1ccc(C(=O)NCc2cccnc2)c(N2CCN(C(=O)c3ccco3)CC2)n1 [CBK076444],98.2068
16,CC1=CC(c2ccccc2)N2N=C(NC(=O)CCCC(=O)O)NC2=N1 (centres unmarked) [CBK287037],101.844
17,CC(C)NC(=O)C1CC2CCC1(C)CC21NC(=O)c2ccccc2O1 (centres unmarked) [CBK285261],84.8266
18,Cc1cccnc1C(NC(=O)C1CCN(S(=O)(=O)c2cccs2)CC1)c1cccs1 (centres unmarked) [CBK060147],91.8769
19,Cc1ccc(SC(C)C(=O)Nc2cc(Cl)ccc2O)cc1 (centres unmarked) [CBK268610],73.0501
20,O=C(c1ccccn1)C1CCCN(c2nccc(CCC(F)(F)F)n2)C1 (centres unmarked) [CBK306775],55.9002
21,CCCNCCc1ccc2c(c1)C(=O)N(Cc1ccc(OC)cc1)C2=O [CBK011826C],109.273
22,COc1cccc(NC(=O)c2cc3ccccc3o/c2=N\O)c1 [CBK288387],64.0948
23,CCOC(=O)c1cnc(C2CC2)nc1NCc1cccc(C)c1C [CBK114707],101.226
24,O=c1oc(-c2cccc(F)c2)nc2cc(Cc3ccc4c(=O)oc(-c5cccc(F)c5)nc4c3)ccc12 [CBK262775],89.3856
25,Cc1nc2ccc(C(=O)N(C)CCN(C)C)cn2c1N(C)CC1CCCCC1 [CBK145894],98.7176
26,Cc1cn(C(C)C(=O)N(C)C)nc1C1CCCCC1 (centres unmarked) [CBK016092],59.7214
27,CC(C)c1ccc(N2C(=O)[C@@H]3C[C@@H](NC(=O)c4cccn4C)CCN3C2=O)cc1 [CBK289547],117.461

row,Compound,% of control remaining
1,Cc1nnc(N/N=C/c2cn(Cc3c(F)cccc3Cl)c3ccccc23)n1N [CBK278277C],106.561
2,Cc1ccc(S(=O)(=O)N2CCN(CC(O)COc3ccc4ccccc4c3)CC2)cc1 (centres unmarked) [CBK266239],107.274
3,O=C(c1n[nH]nc1-c1ccccc1)N1CCCC(C(F)(F)F)C1 (centres unmarked) [CBK164228],70.3816
4,Cn1ccnc1CN1CCNC(=O)C1c1ccccc1C(F)(F)F (centres unmarked) [CBK306415],75.7883
5,CCCNc1cncc(-c2cccc(F)c2)n1 [CBK065441],67.4554
6,CC(=O)N1CCN(c2ccc(NC(=O)CSc3ccc(C)cc3)cc2)CC1 [CBK269854],118.511
7,O=C(CCc1ccncc1)N1CCOC(c2ccc(F)cc2F)C1 (centres unmarked) [CBK304692],66.0475
8,O=C(Cn1c(C2CCCNC2)cc2cccnc21)N1CCCC1 (centres unmarked) [CBK285060],87.3465
9,COC(=O)c1cccc(COC(=O)c2ccc3nc(C)c(C)nc3c2)c1 [CBK269641],77.7231
10,CC(C)(C)C(=O)N1CCC(c2nnc(-c3ccsc3)o2)CC1 [CBK283378],99.7658
11,CCN1C(=O)COC[C@@H]1[C@H](O)c1ccc(NC(=O)COc2ccccc2)cc1 [CBK289685],115.204
12,CN(C)CCSc1nc2cc(Cl)ccc2o1 [CBK266337C],102.702
13,COc1ccc(N2CCN(c3cncc(-c4cccc(N)c4)n3)CC2)cc1OC [CBK066126],137.616
14,COc1ccccc1CNC(=O)c1cnc2sc(C)cn2c1=O [CBK287708],85.0398
15,COc1cc(C(c2nnnn2C2CCCCC2)N2CCN(C)CC2)cc(OC)c1OC (centres unmarked) [CBK142338C],89.6075
16,COc1cc(/C=N/N=C(/Nc2ccc(C)cc2)c2nc3ccccc3s2)ccc1O [CBK265029],101.187
17,O=C(O)C1(c2ccc(Br)cc2)CCCC1 [CBK287134],84.0391
18,O=C(O)c1ccn(-c2ccc(NS(=O)(=O)c3ccc(N4CCCC4=O)cc3)cc2)n1 [CBK298327],83.4471
19,Cc1nc(-c2ccc(CNC(=O)C(Cc3ccccc3)N3CCCC3)cc2)ccc1C(N)=O (centres unmarked) [CBK286017],101.299
20,CCc1nc2c(OCC3CCCCC3)cccn2c1N(C=O)Cc1ccc(OC)cc1 [CBK147811],80.0879
21,CC(=O)N1CCc2cc(C(=O)CN3CCOCC3)ccc21 [CBK291105],96.979
22,Cc1cccnc1C1(O)CCN(C(=O)NCc2ccccc2)CC1 [CBK282293],93.6658
23,Cc1c(C(=O)O)sc(S(=O)(=O)N2CCN(C(=O)Cc3ccsc3)CC2)c1C(=O)O [CBK297134],87.5406
24,CCN(CC(C)C#N)C(=O)c1ccc2ccccc2n1 (centres unmarked) [CBK304801],61.9716
25,CC1CC(C)CN(C(=O)CN2C3CCC2CC(O)(c2ccco2)C3)C1 (centres unmarked) [CBK284032],114.935
26,O=C(N[C@H]1CCN2C(=O)N(c3cccc4nsnc34)C(=O)[C@@H]2C1)c1ccnc(Cl)c1 [CBK289545],105.436
